Reference: patent publication US11555013B2, “Potent and selective inhibitors of monoamine transporters; method of making; and use thereof” (priority 2013, dated 2023)

How the values were obtained:
[1] = target: SERT (Rattus norvegicus (Rat), UniProt P31652); assay: Serotonin Transporter Binding Assay ([3H]Citalopram, rat midbrain membranes); settings: halogen-substituted v. unsubstituted analogue (2i v. 2g; 4c v. 4a)
[2] = test system: Swiss Webster mice; assay: Mouse locomotor activity test; settings: Swiss Webster mice; 4g up to 30 mg/kg; cocaine 3, 10, 17, 30 mg/kg

UniProt P31652, sequence (P31652 whole entry): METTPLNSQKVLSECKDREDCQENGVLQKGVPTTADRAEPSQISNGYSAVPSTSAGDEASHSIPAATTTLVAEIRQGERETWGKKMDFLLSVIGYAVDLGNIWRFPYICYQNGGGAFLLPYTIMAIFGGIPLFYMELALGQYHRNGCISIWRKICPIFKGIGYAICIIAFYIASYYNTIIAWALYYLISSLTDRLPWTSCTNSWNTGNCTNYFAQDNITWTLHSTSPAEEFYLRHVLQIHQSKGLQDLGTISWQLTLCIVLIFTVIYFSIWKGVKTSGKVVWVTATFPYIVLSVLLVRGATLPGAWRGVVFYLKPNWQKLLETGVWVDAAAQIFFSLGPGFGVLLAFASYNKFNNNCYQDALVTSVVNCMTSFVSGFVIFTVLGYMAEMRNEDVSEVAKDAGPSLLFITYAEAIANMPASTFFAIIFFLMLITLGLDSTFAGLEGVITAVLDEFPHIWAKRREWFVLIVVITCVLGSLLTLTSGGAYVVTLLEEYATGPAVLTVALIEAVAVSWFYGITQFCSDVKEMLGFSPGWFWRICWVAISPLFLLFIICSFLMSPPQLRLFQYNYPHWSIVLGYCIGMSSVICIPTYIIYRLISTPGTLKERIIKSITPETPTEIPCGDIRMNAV

Compound	increase in SERT affinity [1] [fold]	locomotor stimulation (ambulatory distance, FIG. 2) [2]
CNC(=O)CSC(c1ccc(Br)cc1)c1ccc(Br)cc1 [Compound 2i, 2-((Bis(4-bromophenyl)methyl)thio)-N-methylacetamide]	> 50	
Fc1ccc(C(SCCNCCCc2ccccc2)c2ccc(F)cc2)cc1 [Compound 4g, N-(2-((bis(4-fluorophenyl)methyl)thio)ethyl)-3-phenylpropan-1-amine]		does not produce locomotor stimulation
NCCSC(c1ccc(Br)cc1)c1ccc(Br)cc1 [Compound 4c, 2-((bis(4-bromophenyl)methyl)thio)ethan-1-amine]	9	
